Measured values reported in the supplement of paper PMC3334620.
In all, about 33,000 sequences were measured (“E-score (-0.5 to 0.5)”: median about -0.016, highest 2% from about 0.31 on). The list shows a part of the results.

What follows are sequences tested against Cst6 (UniProt P40535) (assay: PBM E-score (8-mer binding enrichment) (E-score (-0.5 to 0.5)); higher = stronger / more preferred TF binding; most listed sequences are background and not binding sites). Settings: protein concentration: 200 nM; construct: GST-DNA-binding domain.
Method: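 Universal 'all 10-mer' protein binding microarrays (Agilent AMADID 015681) probed with GST-tagged S. cerevisiae TFs (full-length or DBD) made by in vitro transcription/translation (PURExpress), about 100-200 nM. Bound TF was detected with fluorescent anti-GST. Each ungapped 8-mer (which stands for itself and its reverse complement) is scored by the PBM enrichment score (E-score), a modified Wilcoxon-Mann-Whitney statistic from -0.5 to +0.5, computed with the Universal PBM Analysis Suite. Scale: above 0.35 generally sequence-specific binding.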

Sequence	PBM E-score
CAACCCCC	-0.336
AATCAGTC	0.11
CAGACCGC	-0.00344
ACTATCAG	0.0591
CACATTCA	-0.168
AGATCTCG	-0.0826
CCAAAAAC	0.14
CAATTGGA	-0.0723
ATGGTTTC	0.0704
ACCGGGCG	-0.364
ATGCTAGC	0.104
AGTACTGA	0.209
CTTATAGA	0.0342
TAAGTCAA	0.0153
GACAATCC	0.0764
AAGCAAGA	0.0824
ACCATTGA	-0.00364
AGACGTCC	-0.00823
ATCTGAAA	0.0964
CCCTGTAG	-0.202
CACCGGGG	-0.276
GATACTGC	-0.0133
ATTCACTG	0.0163
AGCGTGCA	-0.103
CTAATGGC	-0.0382

Sequence	PBM E-score
CGGTGGGA	-0.166
CCCACAAC	-0.0168
ATAGGCCA	-0.209
AAAACTCT	0.0295
CACTCGCA	-0.102
CCGTTTTA	0.148
CCAATTGG	-0.0187
GACTAACC	-0.11
GCTGCTTA	-0.0833
ACATAGTG	0.0798
ACGAAACG	0.202
CACTCAAC	0.0759
GGTGGATA	-0.0848
TAGATAAA	0.0886
CGCTCGAA	-0.135
GACAAGTA	-0.105
ACAAACCG	0.00436
AAACCACA	0.161
AGAGCTTC	-0.26
AGGTCCTG	-0.31
ACCACGAA	-0.0509
ACGTGATG	0.291
AAACAGCG	0.091
GTGGACGA	0.0302
CGTACCAA	0.0391

Sequence	PBM E-score
CTCTGTGA	0.0453
AGGTGAGA	0.0149
CTAGTACA	0.12
GGCTATTA	0.236
AGCTTTCC	-0.185
AGAGCCGA	0.102
ATCCGAAC	-0.0874
CACGGAGG	-0.133
CATACGGG	-0.102
CAAGTATA	-0.069
AGGGAAGA	-0.255
AGCCGTCG	-0.0206
AAATACTG	0.041
ACTGCGCG	-0.00892
GACTATTA	0.108
TTTAAAAA	0.0985
CATGTAGG	0.0522
ATGGATAA	0.13
AGGGAATC	-0.106
ATAACGAT	0.0122
ATGGCAGC	-0.106
AGGAAAAC	-0.0557
CTCACTGC	-0.0116
ACATGACT	-0.0377
CGCAGTCA	-0.114

Sequence	PBM E-score
ACCTGTGG	-0.192
CTATTGCA	0.0171
ACGCATAC	0.16
ACCGTCGC	-0.0702
CGCTGGAC	-0.297
AGTTTCAC	0.0804
CAGTTGGG	-0.0311
ATAATCGA	0.0249
AGAGTGGG	-0.134
ACTTCCGC	-0.187
CAGTTCCC	-0.0232
ACGGCTGC	-0.0402
CTCAGGAG	-0.106
CAGACTAG	-0.199
CCATCGAA	0.0752
CACCAGTG	-0.0525
AACCTAGC	-0.22
CCGTTGGA	-0.208
AGAGAGAG	-0.155
ATAACCCA	-0.00817
GATTGTCA	0.17
TCCGACGA	-0.0151
CAATTCCC	0.0483
CATTGCAC	0.0758
TGCGTCAA	0.318

Sequence	PBM E-score
ACATTAAT	0.119
CTTCAATC	0.0446
CGGAGGGC	-0.314
AAAATGAC	0.327
ACCCTCGA	-0.212
GTACAAGA	0.0547
AGCTGTTA	0.0939
AGAACCCT	-0.269
CAAATAGA	0.169
CTCCTAGA	-0.09
AAGCTGTA	0.0993
ATTGAGCA	-0.0751
TCCCCTAA	-0.144
TCGCAAGA	-0.124
CTTGACGC	0.214
GTCGGAGA	-0.151
ACTGCTGC	-0.0308
ATCCAGAG	-0.0234
GTGCAAAA	0.09
AGTCAGCG	-0.134
GAACCACC	0.0133
CCATAGGA	-0.242
TCCAGGAA	-0.072
AAATTCAG	0.117
CACCCAAA	-0.00202

Sequence	PBM E-score
ACCAATAA	0.216
CTGCGTAA	0.195
CTTTTGCA	0.175
CCTTATCG	0.0828
GCTTCGCC	-0.307
AGGTACGC	-0.097
AGCCGAAT	0.0133
AACGCTGG	-0.131
ACGTATTC	0.285
CATATCAA	0.256
GGCCCCAA	-0.149
CGCTAGGC	-0.174
AAGATAGA	-0.0664
CAGGTATA	0.102
ACTTGCGG	-0.281
ACCAGCTG	-0.278
TACGTACA	0.336
AAGTCAGG	-0.165
ATCCTCTA	-0.185
GGTAAGAA	-0.11
ATTTTCAG	0.196
TCGACAAA	0.128
GCTAGCCC	-0.229
CACGCGGG	-0.0196
CGAGGCTC	-0.0398

Sequence	PBM E-score
CTAGCGGA	-0.264
GTAAACCA	-0.0463
ATTCGTAG	0.0897
CTCCCCAC	-0.201
AGTAATGC	0.0951
AACCGAGA	-0.00338
AGATGCAT	-0.0176
CAACTCAG	-0.0943
ACCTTACG	0.164
GGATATTA	0.14
AGGAGACC	-0.335
CGTGTGCC	0.0208
GCAGCCCC	-0.349
ATGGCGCG	0.043
CCGTGCGC	0.116
AACGTCGG	-0.174
ATAGCTTA	0.123
CATGATGC	0.28
ATGGCTAG	-0.0587
GCGACCGA	-0.00726
AACTTCCC	-0.089
GGGTTAAA	-0.06
AATGGAGC	0.0703
GGTCCGAC	-0.108
CAGTTTCG	0.0709

Sequence	PBM E-score
CTTCTGTA	0.102
CCTCCCCG	-0.0606
TAACCGCA	0.242
AGGAATTA	0.192
CGATCAAA	-0.0394
ATGCTTGG	-0.102
CTACGAGA	-0.168
ATCGATCC	-0.0396
CATGCGCG	0.0648
AAGAAGTC	-0.0391
AGAAGAGA	-0.0909
ATTTTTCA	0.197
AACTCGTA	0.0444
CGCTCTGC	-0.0673
ATTTCCTC	0.148
CATAGCGG	-0.261
GCCGCGGC	0.31
AACGCACA	0.0324
ATCATGGA	0.0954
CGAGAAAG	0.0759
AAGTTTGC	0.092
CGAGCAGA	-0.24
AAAAACTT	0.19
CCTGCTCC	-0.172
AATCATGA	0.338

Sequence	PBM E-score
TCAAGACA	0.0551
AGTTTGGC	-0.0468
AATAAAAG	0.177
CCAAGTCA	-0.139
GGGACTCA	-0.353
TCGCACGA	0.0411
CAGATTCG	-0.0278
CCAGACCC	-0.328
ACCAGATG	-0.0797
CCGAGGGA	-0.373
CGGGCCCC	-0.311
GGTGACAC	0.163
AGGCGCCA	0.0572
CTGTGGGA	-0.218
GCGATAGC	-0.113
TAGAGAAA	-0.0379
CTAATTTC	0.128
CAAATACA	0.275
GCTTCATA	0.0223
